Results as given in PubChem BioAssay AID1030 (National Center for Advancing Translational Sciences (NCATS), 2008).
Screen size: about 220,000 compounds; about 16,000 (7.3%) were called active. Inconclusive means that the source gave no clear call. Such entries were picked first, then a sample of the others. The call rests on the fitted dose curve; in most records, active means well fitted inhibition curve with a large enough effect (not every such curve was filed as active); inconclusive means small, poorly fitted or top-dose-only effect, or another doubt; inactive means no such curve, though single readings can be large or run the other way. No potency is given beside an inconclusive call; the fits are too rough.

What follows are compounds tested against Aldehyde dehydrogenase 1A1 (Homo sapiens) (UniProt P00352) (assay: qHTS Assay for Inhibitors of Aldehyde Dehydrogenase 1 (ALDH1A1)). Conditions: Purified ALDH1A1, NADH fluorescence, propionaldehyde substrate; series mostly up to 75.3 µM.
Potency means the concentration at half of the fitted maximal effect; tags describe the fitted curve by direction and shape.

Chain of UniProt P00352 (P00352 whole entry, looked up): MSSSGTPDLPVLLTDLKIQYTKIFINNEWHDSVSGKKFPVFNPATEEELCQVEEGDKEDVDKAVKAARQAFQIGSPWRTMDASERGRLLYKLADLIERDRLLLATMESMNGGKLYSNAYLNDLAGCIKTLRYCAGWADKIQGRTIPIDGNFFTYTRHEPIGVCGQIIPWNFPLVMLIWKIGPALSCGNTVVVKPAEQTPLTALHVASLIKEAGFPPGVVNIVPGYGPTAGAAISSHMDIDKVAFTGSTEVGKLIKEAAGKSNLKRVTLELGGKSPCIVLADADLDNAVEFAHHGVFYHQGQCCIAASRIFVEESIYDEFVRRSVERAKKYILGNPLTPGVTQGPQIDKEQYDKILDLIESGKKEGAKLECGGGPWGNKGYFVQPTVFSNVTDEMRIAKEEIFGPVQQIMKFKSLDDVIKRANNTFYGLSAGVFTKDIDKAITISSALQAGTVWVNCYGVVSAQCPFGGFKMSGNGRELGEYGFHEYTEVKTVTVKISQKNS

Compound | Potency
CCN1CCCC1CNc1ncnc2c1[nH]c1ccc(Cl)cc12 (centres undefined) | inconclusive [inhibitor, single point]
O=C(CSc1nc2ccccc2[nH]1)c1ccc(Cl)s1 | inconclusive [inhibitor, single point]
O=c1oc2ccccc2cc1-c1nc2c(s1)CCCC2 | inconclusive [inhibitor, partial curve]
Cc1nn(C)cc1NC(=O)CCSc1nc(-c2ccco2)cc(C(F)(F)F)n1 | inconclusive [inhibitor, single point]
Cn1cnc([N+](=O)[O-])c1Oc1ccc2ccccc2c1 | inconclusive [inhibitor, single point]
Cc1c(C(=O)NN)sc(-c2ccccc2)c1C#N | active: 1.26 µM
CN1CCN(c2ccc([N+](=O)[O-])cc2NC(=O)c2ccccc2Cl)CC1 | inconclusive [inhibitor, single point]
Cc1nonc1NC(=O)CSc1nnc(-c2ccoc2C)n1-c1cccc(Cl)c1 | active: 10 µM
CC1(C)CC(=O)C(Sc2ccccc2[N+](=O)[O-])=C(O)C1 | active: 7.08 µM
C=C1C(C(=O)Nc2cccc(OC)c2)C1C(=O)Nc1cccc(OC)c1 (centres undefined) | inactive
CCOc1ccccc1OCC(=O)Nc1ccc(S(=O)(=O)Nc2ncccn2)cc1 | inactive
CCc1ccc(N2CC(C(=O)N/N=C/c3cccc([N+](=O)[O-])c3)CC2=O)cc1 (centres undefined) | inactive
CCCCn1c(SCC(=O)OCC)nnc1-c1ccoc1C | inconclusive [inhibitor, partial curve]
Cc1nn(C)c(C(=O)NCc2ccc(Cl)cc2)c1Cl | inactive
C=CCNC(=S)Nc1ccc(Cl)cc1F | inactive
Cc1ccnc(NC(=S)NC(=O)c2ccco2)c1 | inactive
CCOc1ccc(S(=O)(=O)N(CC(=O)N/N=C/c2ccc(-c3ccc([N+](=O)[O-])cc3)o2)c2ccccc2)cc1 | active: 25.1 µM
CC(=O)c1ccc(NC(=S)NNC(=O)NC2CCCCC2)cc1 | active: 1 µM
COc1cccc(C2=NOC(C(=O)Nc3ccc(C(C)=O)cc3)C2)c1 (centres undefined) | inconclusive [inhibitor, partial curve]
O=C(CCN1CCOCC1)N1CCc2c([nH]c3ccccc23)C1c1cccc(Cl)c1 (centres undefined) | inactive
CC(NS(C)(=O)=O)C(c1cccs1)N1CCN(Cc2ccccc2)CC1 (centres undefined) | inconclusive [inhibitor, single point]
Cc1ccc(C(=O)OCc2nnc(-c3ccc(Br)cc3)o2)cc1 | inactive
CC(=O)c1ccc(N2CCN(C(=O)c3cc(-c4ccc5c(c4)OCO5)nc4ccccc34)CC2)cc1 | inconclusive [inhibitor, partial curve]
Cc1cc([N+](=O)[O-])cc2c1NC(=O)C2(O)N1CCCCCC1 (centres undefined) | active: 22.4 µM
O=C(Nc1ccccc1C(F)(F)F)c1cc(S(=O)(=O)N2CCC3(CC2)OCCO3)ccc1F | inconclusive [inhibitor, single point]

Compound | Potency
O=C1CC2(CCCC2)CC(=O)N1CCCCNC[C@H]1COc2ccccc2O1 | active: 10 µM
CCc1nnc(NC(=O)CSc2nnc(-c3ccoc3C)n2-c2ccccc2)s1 | inconclusive [inhibitor, partial curve]
O=C(NCC1CCCO1)c1ccc(NS(=O)(=O)c2cccs2)cc1 (centres undefined) | inconclusive [inhibitor, single point]
Cc1ccc(S(=O)(=O)N(c2ccc(Br)cc2)C2C=CS(=O)(=O)C2)cc1 (centres undefined) | inactive
c1ccc(-c2ccc(N3CCCC4(CCNCC4)C3)cc2)cc1 | inconclusive [inhibitor, partial curve]
N=C1C(c2nc3ccccc3[nH]2)=C(O)CN1c1ccc(F)cc1 | inconclusive [inhibitor, single point]
O=c1c2c(nc3c(-c4ccc(Cl)cc4)c[nH]n13)CCC2 | inconclusive [inhibitor, single point]
Cc1ccc2c(Cl)cc(Cl)c(OCC(=O)OCC(=O)Nc3ccc(C#N)cc3)c2n1 | inactive
CCOC(=O)c1c(NC(=O)Cn2cnc3sc(C)c(-c4ccccc4)c3c2=O)sc(C)c1C | inconclusive [inhibitor, partial curve]
CC1CSc2ccccc2NC1=S (centres undefined) | inconclusive [inhibitor, single point]
CCCN1CCN(C(=O)CCCn2c(C)c3cnn(-c4ccccc4)c(=O)c3c2C)CC1 | active: 28.2 µM
CCOC(=O)c1[nH]c2ccc(OC)cc2c1NC(C)=O | inconclusive [inhibitor, partial curve]
CCOC(=O)C(CC)(CC)C(=O)/C=C/c1ccc(Br)cc1 | inconclusive [inhibitor, partial curve]
CCOc1cccc(N2C(=O)CC(N3CCC(C(N)=O)(N4CCCCC4)CC3)C2=O)c1 (centres undefined) | active: 25.1 µM
O=c1[nH]cnc2sc3c(c12)CCCC3 | inactive
O=C(N/N=C/C(Br)=C/c1ccccc1)NC1CCCCC1 | inconclusive [inhibitor, full curve, poor fit]
Cc1csc(SCC(=O)c2ccc(S(=O)(=O)N3CCOCC3)cc2)n1 | inconclusive [inhibitor, partial curve]
O=S(=O)(Nc1ccc2cn[nH]c2c1)c1ccccc1 | inconclusive [inhibitor, partial curve]
Cc1cccc(NC(=S)N2CCCN(c3ncccc3[N+](=O)[O-])CC2)c1 | active: 14.1 µM
Cc1ccc(-c2nc3cccnc3s2)cc1NS(=O)(=O)c1ccc2c(c1)CCCC2 | inconclusive [inhibitor, partial curve]
O=C1c2cnc3nc(SCc4ccc(Cl)cc4)nn3c2CC2c3ccccc3CCN12 (centres undefined) | inconclusive [inhibitor, partial curve]
O=C(/C(C=Nc1ccc(F)cc1)=C(/O)c1ccco1)C(F)(F)F | inactive
C=CCN1C(=O)/C(=C2/C(=O)N(CC(=O)O)c3ccccc32)S/C1=N/c1nccs1 | inactive
COc1cc2cc(CN(CCCN3CCOCC3)Cc3nnnn3Cc3ccccc3)c(=O)[nH]c2cc1OC | inconclusive [inhibitor, single point]
NS(=O)(=O)c1ccc(NC(=O)COC(=O)/C(=C/c2cccs2)c2cccs2)cc1 | inactive

Compound | Potency
COc1ccc(OC)c2c1CC(C)(C)NC2=O | inconclusive [inhibitor, partial curve]
COC(=O)C1=C(N)Oc2cc(C)n(CC3CCCO3)c(=O)c2C1c1ccc(Cl)c(Cl)c1 (centres undefined) | inconclusive [inhibitor, partial curve]
Cc1cccc(N2C(=O)CC(N3CCN(C(=O)c4ccccc4)CC3)C2=O)c1 (centres undefined) | active: 25.1 µM
Cc1noc(C)c1C(=O)N1CCC2(CC1)CN(c1cccc(-c3ccccc3)c1)C2 | inconclusive [inhibitor, single point]
CCCc1cc(C(=O)Cc2ccc(F)cc2)c(O)cc1O | inactive
O=C1CCC/C(=N\NC(=O)c2ccc(NS(=O)(=O)c3ccc(Br)cc3)cc2)C1 | inconclusive [inhibitor, single point]
CC(C)OC(=O)CCCCCN1C(=O)CSC1=S | inconclusive [inhibitor, partial curve]
Cc1cc(/C=N/n2cnnc2)c(C)n1-c1ccc2c(c1)OCO2 | inconclusive [inhibitor, single point]
CCOc1ccc(OCC)c(Nc2cc(C)nc3nc(C)nn23)c1 | inactive
O=C(Nc1ccccc1)N(O)c1ccc(Cl)cc1 | active: 1 µM
Cc1ccc(-c2noc(CN3CCN(Cc4ccccc4)CC3)n2)cc1 | active: 28.2 µM
CC(=O)N=c1sc2nc3ccccc3nc2n1N(C(C)=O)C(C)=O | inconclusive [inhibitor, partial curve]
CCNC(=S)NNC(=O)c1csc2c1CCCC2 | inconclusive [inhibitor, single point]
Cc1nc2ccc(NC(=O)/C=C/C(=O)O)cc2nc1C | inconclusive [inhibitor, partial curve]
Cc1onc(-c2ccccc2Cl)c1C(=O)Nc1ccccc1C(=O)NC(C)C | inconclusive [inhibitor, single point]
COc1cccc(OC)c1OCC(C)CNCC1CCCO1 (centres undefined) | inactive
COc1cc(OC)c(-c2nn3c(C4CCCCC4)nnc3s2)cc1OC | inconclusive [inhibitor, partial curve]
COc1ccc(C(=O)NC(=S)N2CC(C)OC(C)C2)cc1 (centres undefined) | inactive
Cc1nc2cc(N)ccc2n1C1CCCCC1 | inconclusive [inhibitor, single point]
CCOc1cc(CNc2ccc(S(N)(=O)=O)cc2)cc(Cl)c1OC | inactive
Cc1cc(/C=C2\C(=N)N3N=C(C(C)C)SC3=NC2=O)c(C)n1-c1ccccc1 | inconclusive [inhibitor, partial curve]
CC1=NN(C(=O)CCc2ccc3c(c2)OCO3)C(O)(C(F)(F)F)C1 (centres undefined) | inconclusive [inhibitor, single point]
CCNC(=S)N(CCc1ccccc1C)Cc1cc2cc(OC)c(OC)cc2[nH]c1=O | inconclusive [inhibitor, single point]
CC1CCCCC1NC(=O)/C(C#N)=C/c1ccc2c(c1)OCCO2 (centres undefined) | inconclusive [inhibitor, single point]
